# Assay results as given in patent publication US10172829B2 (priority 2014, dated 2019).
# System: C. difficile strain 630
smiles,measurement,setting,value
"O=c1c2ccccc2[se]n1-c1ccccc1 [Ebselen, 2-phenyl-1,2-benzoselenazol-3-one]","overall pathology, histology analysis of the colon",ebselen vs vehicle treated infected mice,significant improvement in overall pathology
same,growth inhibitory or killing effect on C. difficile (CFUs per ml of feces),"mouse, in vivo",No growth inhibitory or killing effect
same,"mean of differences of overall histopathological scores, ebselen vs vehicle","mouse, in vivo",2.3
same,"overall histopathological score (cell infiltration, submucosal edema, mucosal hypertrophy)","mouse, in vivo, po, 100 mg/kg",1.43±0.2
